In patent US20200308274A1:

Columns and labels:
[1] = target: soluble liraglutide (human) (UniProt P01275); assay: ELISA Assay (III-B); row labelled 3 uM; two-step purified antibody; raw signal, mean of 3
[2] = target: liraglutide fibrils (human) (UniProt P01275); assay: as above
[3] = target: liraglutide fibrils (human) (UniProt P01275); assay: ELISA Assay (III-B); row labelled 0.3 uM; two-step purified antibody; A450 ratio, mean of 3
[4] = target: soluble liraglutide (human) (UniProt P01275); assay: ELISA Assay (III-B); row labelled 30 uM; two-step purified antibody; raw signal, mean of 3
[5] = target: liraglutide fibrils (human) (UniProt P01275); assay: as above
[6] = target: soluble liraglutide (human) (UniProt P01275); assay: ELISA Assay (III-B); row labelled 10 uM; two-step purified antibody; raw signal, mean of 3
[7] = target: liraglutide fibrils (human) (UniProt P01275); assay: as above
[8] = target: liraglutide fibrils (human) (UniProt P01275); assay: ELISA Assay (III-B); row labelled 1 uM; two-step purified antibody; A450 ratio, mean of 3
[9] = target: soluble liraglutide (human) (UniProt P01275); assay: ELISA Assay (III-B); row labelled 1 uM; two-step purified antibody; raw signal, mean of 3
[10] = target: liraglutide fibrils (human) (UniProt P01275); assay: as above
[11] = target: liraglutide fibrils (human) (UniProt P01275); assay: ELISA Assay (III-B); row labelled 3 uM; two-step purified antibody; A450 ratio, mean of 3
[12] = target: liraglutide fibrils (human) (UniProt P01275); assay: ELISA Assay (III-B); row labelled 30 uM; two-step purified antibody; A450 ratio, mean of 3
[13] = target: soluble liraglutide (human) (UniProt P01275); assay: ELISA Assay (III-B); row labelled 0.03 uM; two-step purified antibody; raw signal, mean of 3
[14] = target: liraglutide fibrils (human) (UniProt P01275); assay: as above
[15] = target: liraglutide fibrils (human) (UniProt P01275); assay: ELISA Assay (III-B); row labelled 100 uM; two-step purified antibody; A450 ratio, mean of 3
[16] = target: liraglutide fibrils (human) (UniProt P01275); assay: ELISA Assay (IV); 0.1 uM fibrils in 1600 uM soluble liraglutide; 5 nM antibody; A450 ratio to soluble-only wells
[17] = target: liraglutide fibrils (human) (UniProt P01275); assay: ELISA Assay (III-B); row labelled 0.03 uM; two-step purified antibody; A450 ratio, mean of 3
[18] = target: soluble liraglutide (human) (UniProt P01275); assay: ELISA Assay (III-B); row labelled 300 uM; two-step purified antibody; raw signal, mean of 3
[19] = target: liraglutide fibrils (human) (UniProt P01275); assay: as above
[20] = target: soluble liraglutide (human) (UniProt P01275); assay: ELISA Assay (III-B); row labelled 0.10 uM; two-step purified antibody; raw signal, mean of 3
[21] = target: liraglutide fibrils (human) (UniProt P01275); assay: as above
[22] = target: liraglutide fibrils (human) (UniProt P01275); assay: ELISA Assay (III-B); row labelled 0.1 uM; two-step purified antibody; A450 ratio, mean of 3
[23] = target: liraglutide fibrils (human) (UniProt P01275); assay: ELISA Assay (III-B); row labelled 300 uM; two-step purified antibody; A450 ratio, mean of 3
[24] = target: liraglutide fibrils (human) (UniProt P01275); assay: ELISA Assay (III-B); row labelled 0.01 uM; two-step purified antibody; A450 ratio, mean of 3
[25] = target: soluble liraglutide (human) (UniProt P01275); assay: ELISA Assay (III-B); row labelled 0.01 uM; two-step purified antibody; raw signal, mean of 3
[26] = target: liraglutide fibrils (human) (UniProt P01275); assay: as above
[27] = target: liraglutide fibrils (human) (UniProt P01275); assay: ELISA Assay (III-B); row labelled 10 uM; two-step purified antibody; A450 ratio, mean of 3
[28] = target: soluble liraglutide (human) (UniProt P01275); assay: ELISA Assay (III-B); row labelled 0.30 uM; two-step purified antibody; raw signal, mean of 3
[29] = target: liraglutide fibrils (human) (UniProt P01275); assay: as above
[30] = target: soluble liraglutide (human) (UniProt P01275); assay: ELISA Assay (III-B); row labelled 100 uM; two-step purified antibody; raw signal, mean of 3
[31] = target: liraglutide fibrils (human) (UniProt P01275); assay: as above

- antibody binding signal (absorbance at 450 nm) [1]: 0.05
- antibody binding signal (absorbance at 450 nm) [2]: 0.16
- Liraglutide fibril specificity (Liraglutide fibril/Liraglutide monomer) [3]: 1.62
- antibody binding signal (absorbance at 450 nm) [4]: 0.15
- antibody binding signal (absorbance at 450 nm) [5]: 0.84
- antibody binding signal (absorbance at 450 nm) [6]: 0.08
- antibody binding signal (absorbance at 450 nm) [7]: 0.34
- Liraglutide fibril specificity (Liraglutide fibril/Liraglutide monomer) [8]: 2.01
- antibody binding signal (absorbance at 450 nm) [9]: 0.05
- antibody binding signal (absorbance at 450 nm) [10]: 0.1
- Liraglutide fibril specificity (Liraglutide fibril/Liraglutide monomer) [11]: 3.04
- Liraglutide fibril specificity (Liraglutide fibril/Liraglutide monomer) [12]: 5.59
- antibody binding signal (absorbance at 450 nm) [13]: 0.05
- antibody binding signal (absorbance at 450 nm) [14]: 0.07
- Liraglutide fibril specificity (Liraglutide fibril/Liraglutide monomer) [15]: 6.6
- Antibody Specificity Ratio (Liraglutide fibril in mixture/Soluble liraglutide) [16]: 37.1
- Liraglutide fibril specificity (Liraglutide fibril/Liraglutide monomer) [17]: 1.4
- antibody binding signal (absorbance at 450 nm) [18]: 0.51
- antibody binding signal (absorbance at 450 nm) [19]: 3.05
- antibody binding signal (absorbance at 450 nm) [20]: 0.05
- antibody binding signal (absorbance at 450 nm) [21]: 0.07
- Liraglutide fibril specificity (Liraglutide fibril/Liraglutide monomer) [22]: 1.51
- Liraglutide fibril specificity (Liraglutide fibril/Liraglutide monomer) [23]: 5.93
- Liraglutide fibril specificity (Liraglutide fibril/Liraglutide monomer) [24]: 1.3
- antibody binding signal (absorbance at 450 nm) [25]: 0.05
- antibody binding signal (absorbance at 450 nm) [26]: 0.06
- Liraglutide fibril specificity (Liraglutide fibril/Liraglutide monomer) [27]: 4.35
- antibody binding signal (absorbance at 450 nm) [28]: 0.05
- antibody binding signal (absorbance at 450 nm) [29]: 0.07
- antibody binding signal (absorbance at 450 nm) [30]: 0.32
- antibody binding signal (absorbance at 450 nm) [31]: 2.08
B1: Antibody E (Fc fusion)
scFv: DIQMTQSPSSLSASVGDRVTITCRASQNVSDAVNWYQQKPGKAPKLLIYSASFLYSGVPSRFSGSRSGTDFTLTISSLQPEDFATYYCQQHYTNPPTFGQGTKVEIKRTSPNSASHSGSAPQTSSAPGSQEVQLVESGGGLVQPGGSLRLSCAASGFNIKDTYIHWVRQAPGKGLEWVARITPTDGTTRYAVSVKGRFTISADTSKNTAYLQMNSLRAEDTAVYYCAREWYEASYYDWFDYFDFSDYWGQGTLVTVSSAAA[human IgG1 Fc not written out]GSHHHHHHKLDYKDHDGDYKDHDIDYKDDDDK
